Results taken from patent publication EP1310557A1, “Design of bioactive peptides based on immunoglobulin structure” (priority 1990, dated 2003).

Legend:
[1] = test system: recombinant glycosylated gp120; assay: Immunization of rabbits: radiolabelled immunoprecipitation of gp120 by antisera; assay type: in vivo, HIV; settings: radiolabelled immunoprecipitations
HIV = assay: Infectivity assays with rabbit anti-peptide sera; assay type: in vivo

With “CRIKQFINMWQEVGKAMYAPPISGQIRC [1005-45, cyclic peptide made from B138 by cysteine bond formation; cyclic 418-445 fragment]” as the sequence, how does the “immunoprecipitation of recombinant glycosylated gp120 by rabbit antisera” value [1] read?
The value was “significant specificity”.

What about the neutralizing antibodies elicited (HIV) of the same sequence?
Its neutralizing antibodies elicited is “could elicit neutralizing antibodies”.
